The text below walks through data of US20250179172A1 (HAINAN SIMCERE ZAIMING PHARMACEUTICAL, published 2025).

The target in assay [1] is T1, human CD5, full length, on cells (Jurkat, endogenous; CHO-K1-human CD5, transfected) (human, UniProt P06127 25-495).
T1 construct: Jurkat cells carry the endogenous protein; also called hCD5; CHO-K1-hCD5-2B2
T1 sequence: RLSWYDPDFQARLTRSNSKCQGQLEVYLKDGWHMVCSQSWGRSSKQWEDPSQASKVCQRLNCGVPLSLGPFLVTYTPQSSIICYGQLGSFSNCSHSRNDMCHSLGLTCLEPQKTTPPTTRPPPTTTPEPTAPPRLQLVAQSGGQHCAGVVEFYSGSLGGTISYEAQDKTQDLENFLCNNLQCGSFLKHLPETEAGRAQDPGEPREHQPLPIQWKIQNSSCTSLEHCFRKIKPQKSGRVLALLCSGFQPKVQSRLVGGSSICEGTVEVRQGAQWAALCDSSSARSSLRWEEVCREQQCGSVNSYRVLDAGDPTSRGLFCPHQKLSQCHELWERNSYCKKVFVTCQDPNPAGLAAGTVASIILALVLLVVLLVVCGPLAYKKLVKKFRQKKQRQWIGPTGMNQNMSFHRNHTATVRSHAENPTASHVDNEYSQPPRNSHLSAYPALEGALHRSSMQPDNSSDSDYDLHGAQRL
In words: FACS on Jurkat cells. An excerpt:
The desired cells were expanded to a logarithmic growth phase in a T-75 cell culture flask. Adherent cells CHO-K1-human CD5 were removed from the culture medium by pipetting, and the cells were washed twice with a PBS buffer, digested with trypsin, and washed twice with a PBS buffer again after the digestion was stopped. For suspension cells Jurkat, the medium supernatant was discarded by direct centrifugation, and the cell pellet was washed twice with PBS. After the cells obtained in the last step were subjected to cell counting, the cell pellet was resuspended to 2×10⁶ cells/mL with a blocking solution [PBS+2% (w/w) BSA] and added to a 96-well FACS reaction plate with 50 μL/well. The VHH-hFc or control antibody was added with 50 μL/well, and the plate was incubated on ice for 2 h. […] After the plate was centrifuged and washed for 5 times with a PBS buffer, the results were assayed and analyzed by FACS (FACS Canto™, purchased from BD Biosciences). Data analysis was performed by software (BD FACSDiva) to obtain the mean fluorescence intensity (MFI) of the cells. Analysis was then performed by software (GraphPad Prism8), data were fitted, and EC₅₀ values were calculated. […] The same method was used to assay the binding reactions of 1 nM and 10 nM VHH-hFc antibodies with Jurkat cells and endogenous CD5-negative Raji cells, and to assay the binding reactions of 1 nM and 10 nM VHH-hFc antibodies with CHO-K1 cells and CHO-K1-human CD5.

The target of assay [2] is T2, human CD5 (Arg25-Pro372)-His protein (Acro, Cat. No. CD5-H52H5) (human, UniProt P06127 25-372).
T2 construct: range 25-372; also called human CD5-His; hCD5-His; not shown: His tag
T2 sequence (looked up): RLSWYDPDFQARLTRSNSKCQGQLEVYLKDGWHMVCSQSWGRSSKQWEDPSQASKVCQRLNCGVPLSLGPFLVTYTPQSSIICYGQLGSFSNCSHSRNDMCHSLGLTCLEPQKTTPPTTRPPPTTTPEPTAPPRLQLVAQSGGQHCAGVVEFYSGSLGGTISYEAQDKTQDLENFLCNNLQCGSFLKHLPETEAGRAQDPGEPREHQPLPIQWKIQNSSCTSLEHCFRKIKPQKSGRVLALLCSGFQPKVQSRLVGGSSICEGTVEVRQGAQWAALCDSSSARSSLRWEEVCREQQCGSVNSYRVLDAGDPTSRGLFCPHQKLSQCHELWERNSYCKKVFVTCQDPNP
Description: ELISA on hCD5-His, antibody 0.1 nM. The method, then: The binding activity of the H65 antibody prepared above with human CD5 protein was subjected to ELISA assay. A purchased commercial antigen (human CD5-His) was diluted with PBS to obtain a final concentration of 2 μg/mL, and then added to a 96-well ELISA plate with 100 µL/well. The plate was sealed with a plastic film and incubated at 4° C. over the night, washed twice with PBS in the next day, added with a blocking solution [PBS+2% (w/w) BSA] and blocked at room temperature for 2 h. The blocking solution was drained out, and 100 nM of the H65 antibody or negative control antibody hIgG1 after gradient dilution was added, namely, the obtained product was the antibody Anti-HEL-hIgG1 against hen egg lysozyme (purchased from Biointron, Cat. No. B117901) with 50 μl per well. After incubation for 2 h at 37° C., the plate was washed for 3 times with PBS. A secondary antibody labeled with HRP (horseradish peroxidase) (A0170, purchased from Sigma) was added. After incubation for 2 h at 37° C., the plate was washed for 5 times with PBS. A TMB substrate was added with 50 μL/well and incubated at room temperature for 30 min, then a stop solution (1.0 N HCl) was added with 50 μL/well.
To assay the binding activity of VHH-hFc to human CD5 protein, ELISA assay was performed according to the method described in Example 2.2. […] IgG control is hIgG1, and data in the table are values of OD_{450 nm}.
Background: In an ELISA, binding on a coated surface is turned into a signal by an enzyme label.

For assay [3], the target named is T2, human CD5 (Arg25-Pro372)-His protein …. In words: SPR (Biacore), antibody captured on Protein A chip, hCD5-His in solution, 1:1 model. The method, then: The anti-human CD5 VHH-hFc was captured using a Protein A chip (GE Healthcare; 29-127-558). The sample and running buffer were HBS-EP+ (10 mM HEPES, 150 mM NaCl, 3 mM EDTA, 0.05% surfactant P20) (GE Healthcare; BR-1006-69). The flow cell was set at 25° C. The sample block was set at 16° C. Both were pretreated with the running buffer. In each cycle, first, the test antibody was captured using the Protein A chip, and then a single concentration of CD5 antigen protein was injected. The association and dissociation processes of the antibody with the antigen protein were recorded, and finally, the chip was regenerated using Glycine pH 1.5 (GE Healthcare; BR-1003-54). The association was determined by injecting different concentrations of recombinant human CD5-His in the solution and maintaining for 240 s, wherein the flow rate was 30 μL/min, and the protein was diluted in a 1:1 dilution ratio from 200 nM (see detailed results for actual concentrations tested) to obtain 5 concentrations in total. The dissociation phase was monitored for up to 600 s and triggered by switching from the sample solution to the running buffer. The surface was regenerated by washing with 10 mM glycine solution (pH 1.5) at a flow rate of 30 μL/min for 30 s. The difference in bulk refractive index was corrected by subtracting the responses obtained from the goat anti-human Fc surface, and blank injections were also subtracted (=double referencing). To calculate the apparent KD and other kinetic parameters, the Langmuir 1:1 model was used. The association rate (Kon), dissociation rate (Koff), and binding affinity (KD) of the VHH-hFc with the hCD5-His protein are shown in Table 12, in which the antibody H65 is used as a control.
Background: Surface plasmon resonance follows binding to a sensor surface in real time, without labels.

B1: S005-NB144-6 VHH-hFc (Fc fusion)
chain: QVQLVESGGGLVQAGGSLRLSCAASGSIFSISVMGWYRQAPGKERETVAVISSGGSTYYADSVKGRFTISRDNAKNTLYLQMNSLKPEDTAVYYCNADFETASGSPLYESWGQGTQVTVSS[human IgG1 Fc with changes not printed]
notes: VHH fused to human IgG1 Fc; no linker stated
The Kd is the free concentration of one partner at which half of the binding sites on the other are occupied at equilibrium, for simple one-to-one binding. Read a high Kd as lower affinity. Usually koff stands for the rate constant with which the complex falls apart. Low readings indicate a long-lived complex, high ones a short-lived complex. What is called kon is the second-order rate constant of association. Low values mean slow association, high ones fast association. Regarding B1, the “Max MFI” value in assay [1] stood at 1980 MFI. This molecule returned an OD450 in assay [2] of 0.9 OD450. In assay [3], this molecule had a Kd of 42.6 nM, a koff of 0.0287 s⁻¹ and a kon of 674000 M⁻¹ s⁻¹.

B2: S005-NB144-7 VHH-hFc (Fc fusion)
chain: EVQVVESGGGLVQAGGSLRLSCAASGSIFSINLLGWYRQAPGKERESVAILSSGGSTYYADSVKGRFTISRDNVKNMLYLQMNSLKPEDTAVYYCNAVGGIATLRDYWGQGTQVTVSS[human IgG1 Fc with changes not printed]
notes: as for B1
One may read the EC50 as the concentration needed to bring the measured effect to its halfway point. Take B2: in assay [1], the midpoint of the response, the EC50, lay at 1.11 nM and the “Max MFI” value is 1850 MFI. Further, the OD450 in assay [2] turned out to be 1.17 OD450. Further, in assay [3], the affinity, expressed as Kd, was 149 nM; the koff amounted to 0.00068 s⁻¹; the kon was 4570 M⁻¹ s⁻¹.

B3: S005-NB144-31 VHH-hFc (Fc fusion)
chain: EVQVVESGGGLVQPGGSLRLSCAASGFTLDYYAIGWFRQAPGKEREGLSCISTSGGSTNYADSVKGRFTISRDNAKNTVYLQMNSLKPEDTAVYYCAASSFWDCAVVGTGSPKTGHLESVFGSWGQGTQVTVSS[human IgG1 Fc with changes not printed]
notes: VHH fused to human IgG1 Fc; no linker stated; also called S002-NB144-31
In the case of B3, in assay [1], the response was half-maximal at 51 nM (EC50) and the “Max MFI” value worked out at 2590 MFI. In assay [2], this molecule returned an OD450 of 1.02 OD450. In assay [3], the Kd came to 23.4 nM, the koff worked out at 0.000961 s⁻¹ and the on-rate (kon) amounted to 41100 M⁻¹ s⁻¹.
